# Laboratory results: PMC4336329 (PLoS ONE, 2015)
# In all, about 310,000 compounds went through this assay and about 2,200 (0.71%) showed an effect of 50% or more. Effects have a minus sign here. The list shows a part of the results.
# Target: human ether-à-go-go-related gene (hERG) potassium channel (human, UniProt Q12809)
# Experiment: primary screen, population patch clamp on CHO cells stably expressing hERG
# human ether-à-go-go-related gene (hERG) potassium channel, sequence (Q12809 whole entry, looked up): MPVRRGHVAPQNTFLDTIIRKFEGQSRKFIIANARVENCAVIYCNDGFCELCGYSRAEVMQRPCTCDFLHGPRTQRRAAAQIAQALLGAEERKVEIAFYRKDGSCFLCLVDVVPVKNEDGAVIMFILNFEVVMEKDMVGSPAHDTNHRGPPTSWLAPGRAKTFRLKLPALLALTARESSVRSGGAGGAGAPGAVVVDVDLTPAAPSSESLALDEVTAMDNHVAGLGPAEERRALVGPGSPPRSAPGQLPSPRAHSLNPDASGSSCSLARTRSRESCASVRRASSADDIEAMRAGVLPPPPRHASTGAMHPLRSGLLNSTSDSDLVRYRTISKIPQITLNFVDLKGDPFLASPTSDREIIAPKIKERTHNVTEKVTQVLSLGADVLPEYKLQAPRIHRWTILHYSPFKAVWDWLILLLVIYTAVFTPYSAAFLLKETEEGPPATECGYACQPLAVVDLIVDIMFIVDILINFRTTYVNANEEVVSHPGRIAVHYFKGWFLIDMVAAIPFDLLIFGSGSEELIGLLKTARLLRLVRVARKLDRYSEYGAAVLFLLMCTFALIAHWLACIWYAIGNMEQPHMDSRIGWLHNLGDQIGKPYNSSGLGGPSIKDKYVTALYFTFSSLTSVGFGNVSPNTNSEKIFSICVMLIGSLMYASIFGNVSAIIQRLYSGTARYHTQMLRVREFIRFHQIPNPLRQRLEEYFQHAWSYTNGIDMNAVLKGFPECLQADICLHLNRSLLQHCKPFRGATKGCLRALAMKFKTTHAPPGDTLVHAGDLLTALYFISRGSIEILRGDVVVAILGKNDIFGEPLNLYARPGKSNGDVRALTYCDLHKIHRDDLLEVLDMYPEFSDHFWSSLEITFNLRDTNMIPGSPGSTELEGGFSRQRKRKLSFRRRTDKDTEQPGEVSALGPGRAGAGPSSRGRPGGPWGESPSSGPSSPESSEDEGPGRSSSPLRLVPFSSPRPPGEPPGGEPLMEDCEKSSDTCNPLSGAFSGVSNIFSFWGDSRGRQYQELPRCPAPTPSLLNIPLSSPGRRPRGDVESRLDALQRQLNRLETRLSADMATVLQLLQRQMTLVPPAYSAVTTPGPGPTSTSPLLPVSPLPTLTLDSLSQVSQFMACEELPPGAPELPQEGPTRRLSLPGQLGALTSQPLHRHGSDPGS
row,SMILES,"hERG current change (%, negative = inhibition) at 1uM [%]"
1,S=c1[nH]nc(-c2cccnc2)n1-c1ccccc1,13.3
2,OC1NC(=S)N(c2ccccc2)C1O (stereo not drawn),1.2
3,COc1cccc(NC2CC(=O)N(CCc3ccccc3)C2=O)c1 (stereo not drawn),9.11
4,C=CCN1C(=O)CSc2ccc(C(=O)NCc3ccc(F)cc3)cc21,4.23
5,O=C(O)c1cc(N/N=C2/CC(c3ccccc3)Oc3ccccc32)ccc1Cl (stereo not drawn),13.3
6,Cn1c(-c2ccccc2O)cc2ccccc21,9.74
7,O=C(Nc1ccnn1C1CCN(C(=O)c2cc(Cl)ccc2F)CC1)C1CCOC1 (stereo not drawn),25
8,CCc1nnc(NC(=O)CSc2nnc(-c3ccc(OC)cc3)n2C)s1,12.9
9,O=C1CN(C(=O)COC(=O)c2ccccc2NCc2ccco2)c2ccccc2N1,6.95
10,CCc1ccc(N2CC(C(=O)NC3CC3)CC2=O)cc1 (stereo not drawn),11.8
11,Cc1cccc(NC(=O)c2ccccc2NC(=O)Cc2ccccc2)c1C,9.55
12,COC(=O)c1ccc(NC(=S)Nc2ccccn2)cc1,22.6
13,CCNS(=O)(=O)c1ccc2nc(NC(=O)c3cccnc3)sc2c1,8.8
14,Cc1cccc(NC(=O)NC2CCCc3ccccc32)c1 (stereo not drawn),14.3
15,CCN(C(=O)CSc1nnc(-c2cccs2)n1N)c1c(N)n(Cc2ccccc2)c(=O)[nH]c1=O,8.81
16,CCn1c(COC(=O)CNC(=O)c2ccccc2F)nc2cc(S(=O)(=O)N(C)C)ccc21,10.5
17,Cc1ccccc1-n1c(C)cc(/C=N/NC(=O)c2ccncc2)c1C,4.1
18,Cc1ccc(OCCCC(=O)N(C)CC(=O)Nc2ccccc2Br)cc1,9.79
19,Cc1cc(N2CCN(C(=O)c3ccco3)CC2)n2nc(C)nc2n1,-14.7
20,C[C@@H](O)CC(=O)[O-].[Na+],1.5
21,Cc1ccc(C)c(SCC(=O)NC(=O)NC2CCCC2)c1,6.35
22,NS(=O)(=O)c1ccc(S(=O)(=O)N2CCCC2)cc1,-1.12
23,CC(C)C(=O)NC(=S)Nc1ccccc1C(=O)Nc1ccccc1,16.3

row,SMILES,"hERG current change (%, negative = inhibition) at 1uM [%]"
1,c1ccc(-c2nc3ccccc3c3nncn23)cc1,9.16
2,CC(=O)c1ccc(NC(=O)CSc2nc(=O)n(CCN3CCOCC3)c3c2CCC3)cc1,6.41
3,O=C(NNC(=O)c1ccc(S(=O)(=O)N2CCCCC2)cc1)c1ccccc1,10.3
4,O=C1c2ccsc2SCCN1Cc1cccc(Cl)c1,8.86
5,COc1ccccc1N=NC1C(=O)N(C(N)=S)N=C1C (stereo not drawn),15.1
6,Cc1ccc(CNCCc2ccccc2F)cc1.Cl,-8.57
7,COc1cc(/C=C2/SC(=S)N(CC(=O)Nc3cccnc3)C2=O)cc(OC)c1OC,8.28
8,CCN(CC)S(=O)(=O)c1ccc(NC(=O)c2ccc(OCC3CCCO3)cc2)cc1 (stereo not drawn),14.6
9,CCOC(=O)c1cc(-c2ccc(OC)cc2)n(CCC(=O)NCCN2CCC(C)CC2)c1C,-9.33
10,COc1cc(/C=N/NC(=O)C(C)Nc2n[nH]c(=O)[nH]c2=O)cc(OC)c1O (stereo not drawn),13.5
11,CCOc1ccccc1CNCCOC.Cl,0.0956
12,CCC(C)Cn1c(C(C)C)nc2ccccc21 (stereo not drawn),2.84
13,CCOc1c(Cl)cc(CNC(C)(C)CC(C)(C)C)cc1OC.Cl,-5.44
14,COc1ccc(C(=O)Nc2ccc(S(=O)(=O)Nc3cnc4ccccc4n3)cc2)cc1,15.1
15,O=C(NC(=S)NCCCN1CCOCC1)c1cccc2ccccc12,9.38
16,CC(C)n1cc(CN2CCC(C(=O)Nc3ccc(Oc4ccccc4F)cc3)CC2)cn1,-46.2
17,Nn1cc(-c2ccccc2)nc1SCC(=O)N1CCN(S(=O)(=O)c2ccc3ccccc3c2)CC1,0.0218
18,O=C(NCC(=O)N1CCCC1)c1ccccc1F,14.6
19,Cc1ccn2cc(CSc3ccccc3)nc2c1,3.94
20,CCOc1ccc(C(=O)N(Cc2ccc(OC)cc2)Cc2cc3cc(OC)ccc3[nH]c2=O)cc1,-3.38
21,Cc1cccc(OCC(=O)N/N=C/c2ccc(N(C)C)cc2)c1,-2.37
22,CNc1nc(Nc2ccc(Br)cc2)nc(N)c1[N+](=O)[O-],10
23,COC(=O)Cc1csc(N)n1.Cl,8.39

row,SMILES,"hERG current change (%, negative = inhibition) at 1uM [%]"
1,CCOc1ccccc1N(CC(=O)Nc1ccc(S(=O)(=O)N2CCOCC2)cc1)S(C)(=O)=O,6.93
2,c1ccc2sc(NC3=NCN(C4CCCCC4)CN3)nc2c1,-8.87
3,COc1ccc(-c2nnc(SCC(C)C)o2)cc1,13.3
4,COc1ccc(N2CCC(CNC(=S)Nc3cccc(OC)c3)C2)cc1 (stereo not drawn),8.46
5,O=C(COC(=O)c1n[nH]c2ccccc12)NCCc1ccc(Cl)cc1,7.88
6,CCOC(=O)C1CCCN(C(=O)Cn2nc(C)c3c(C)n(-c4ccccc4)nc3c2=O)C1 (stereo not drawn),12.7
7,O=C(CC1C(=O)NCCN1Cc1cccc(C(F)(F)F)c1)NCCc1cnccn1 (stereo not drawn),15.7
8,O=C(NCCCn1ccnc1)c1cc(C(=O)C2CC2)c[nH]1,12.4
9,COc1ccc(OC)c(Cc2nnc(CCC(=O)NC3C4CC5CC(C4)CC3C5)o2)c1 (stereo not drawn),3.34
10,CC1(c2ccccc2)CC(C)(C)N2C(=O)/C(=C3\SC(=S)NC3=O)c3cccc1c32 (stereo not drawn),2.4
11,CCCCCCNS(=O)(=O)c1ccc(OC)c(OC)c1,-2.33
12,Cc1cc2ncn(/N=C/c3cccnc3)c2cc1C,3.9
13,O=C(Cc1ccsc1)NNC(=O)c1ccc(F)cc1,-14
14,CS(=O)(=O)N1CCN(c2ccc(NC(=O)c3ccc(-c4ccc(Cl)cc4)o3)cc2)CC1,-0.334
15,N#Cc1cccc(S(=O)(=O)NCC(=O)OCC(=O)c2ccc[nH]2)c1,1.14
16,CCc1c(C)c2ccc(OCC(N)=O)cc2oc1=O,3.26
17,Br.O=C(CN1C2=NCCN2c2ccccc21)c1ccc2c(c1)OCO2,-42.1
18,Cn1ncc(Cl)c1C(=O)N1CCN(c2ccc(F)cc2)CC1,17.5
19,O=C(COc1ccc(Cl)cc1Cl)NNC(=O)c1cccnc1,17.6
20,Cc1ccc(NS(=O)(=O)c2cccc(C(=O)NCc3ccccn3)c2)cc1,-47
21,CC1Sc2ccc(S(=O)(=O)CCC(=O)N3CCN(c4ccccc4F)CC3)cc2NC1=O (stereo not drawn),8.74
22,O=C1C2C3C=CC(C3)C2C(=O)N1c1ccccc1OS(=O)(=O)c1ccccc1 (stereo not drawn),10
23,CCC(=O)Nc1c(-c2ccc(Cl)cc2)c(=O)c2ccccc2n1C,9.36

row,SMILES,"hERG current change (%, negative = inhibition) at 1uM [%]"
1,CCn1cnc2c1c(=O)n(Cc1csc(-c3ccccc3)n1)c(=O)n2Cc1ccccc1,3.7
2,O=C(Nc1ccc(CSc2ccccc2)cc1)c1ccco1,8.68
3,CCCSC1=N/C(=C\c2ccc3c(c2)OCO3)C(=O)S1,6.42
4,CSCC[C@H](NC(=O)N1CCn2c1nc1ccccc12)C(=O)NCc1ccc(F)cc1,-13.2
5,Cc1cc(=O)oc2cc(OCC(=O)N3C[C@H]4C[C@@H](C3)c3cccc(=O)n3C4)c(Cl)cc12,13.8
6,Cn1cc([N+](=O)[O-])c(C(=O)N(Cc2ccccc2)Cc2ccccc2)n1,3.39
7,NC(=O)COC(=O)c1cc(S(=O)(=O)N2CCN(c3ccccc3)CC2)ccc1Cl,13.2
8,O=C(c1cccc(N2C(=O)C3C4C=CC(C4)C3C2=O)c1)N1CCCCCC1 (stereo not drawn),-5.07
9,COc1ccccc1N1CCN(C(=O)c2ccc3[nH]c(C)c(C)c3c2)CC1,20.1
10,CN1CCN(c2nc3ccccc3nc2C(C#N)C(=O)OC2CCCCC2)CC1 (stereo not drawn),-27.7
11,Cc1cc(C(=O)Nc2cccc(S(=O)(=O)N3CCCCC3)c2)c2ccccc2n1,7.45
12,COc1ccc(S(=O)(=O)n2nc(OC(=O)c3ccccc3)cc2N)cc1,5.14
13,Cc1c(C(=O)Nc2ccc(S(=O)(=O)N(C)C3CCN(C)CC3)cc2)oc2c(Cl)cccc12,11.6
14,CCN(Cc1ccccc1)C(=S)NC(=O)c1ccccc1Br,13.6
15,CCOC(=O)c1ccc(CNC(=O)Cn2nnc(-c3ccccc3)n2)o1,5.45
16,O=C(O)CCSCCC(=O)O,14.3
17,Cc1c(NS(=O)(=O)c2ccc(NC(=O)CCC(=O)O)cc2)c(=O)n(-c2ccccc2)n1C,6.21
18,COc1ccc(N2CCN(C(=O)c3ccc(COc4ccc5c(C)cc(=O)oc5c4)cc3)CC2)cc1,6.18
19,COC(=O)c1c(NC(=O)CN2C(=O)NC3(CCC(C(C)(C)C)CC3)C2=O)sc2c1CCCCC2 (stereo not drawn),13.5
20,O=C(CCOc1ccccc1)OCC(=O)c1cc2ccccc2o1,-1.07
21,CCn1c(SCC(=O)NCc2ccco2)nnc1C1CCCC1,16.6
